Results reported in the supplement of paper PMC11417369.
± gives the standard deviation of the averaged measurements. Some of the results follow.

tested on: PfAP2-I AP2 domain 3 (GST-tagged); experiment: gcPBM binding intensity (ln(normalized median fluorescence intensity)); higher = stronger DNA binding
Procedure, shortened: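 The highest Masliner-normalised natural-log median intensity across replicate spots of either probe orientation is reported as binding intensity. GST-tagged P. falciparum DNA-binding domains expressed in E. coli were applied for 1 h to an Agilent 4 × 180k array of primer-extended double-stranded 36-bp intergenic genomic probes plus negative controls, and bound protein was detected with Alexa488 anti-GST antibody and scanned at 488 nm.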

Sequence | gcPBM binding intensity (ln)
TTTACATAAACTGGTAGTACATAATATGGCTTAAAA [XGTACX_site5002] | 7.99 ± 0.45
TTAGCAACTATTACTACACACATTTGTATTTAATTT [CACACA_site4961] | 7.79 ± 0.68
TAAAATATATTTTTCTGTACACAAAAATATATTAAA [XGTACX_site2813] | 7.96 ± 0.17
TATATATTAATATATGCATGTTAATATATTATGAAA [TGCATGCA_site61] | 7.9 ± 0.75
ACAGTATAAAAATAAGCACACACACTAATATATATT [CACACA_site8212] | 8.19 ± 0.37
ACGATGTTCATCACTACACACACAAAGAAATATATA [CACACA_site8859] | 7.8 ± 0.47
AACCAAAATTTTTGTCGTACAAAAGAGCAAATGTAG [XGTACX_site6472] | 8.57 ± 0.25
TTTTACTATGATATTTATATATCTATATATGTATAT [XGTACX_negctrl_site499] | 7.31 ± 0.52
TATAATATTATAGTTTGTACGAAAATAATATATTTA [XGTACX_site8673] | 7.72 ± 0.37
AAAAATAAAAATGAGTGTACTTTAAGCCCTACACTT [XGTACX_site828] | 7.71 ± 0.49
ATAACAAAATAAAACACACACACAAATGTACCTATA [CACACA_site7190] | 7.88 ± 0.45
TAAAGGCAAACAAACACACACACATATATACCTATA [CACACA_site7078] | 7.79 ± 0.45
TATTTATAAATATAAACACACAACATTATATGCATA [CACACA_site5748] | 7.7 ± 0.45
AAAAGTGTATGTAGGTGTACTTTTTATTTCTTCTTT [XGTACX_site8819] | 7.94 ± 0.38
GATACAAAATGGGGAACACACACATATATATATATA [CACACA_site9278] | 9.29 ± 0.19
TATATATATATATAATGTACGAATAGAAAAAAAAAA [XGTACX_site7231] | 9.38 ± 0.15
CAAAATTTATATAATAGTACACATGATCTTTTTTCT [XGTACX_site8956] | 7.62 ± 0.47
TATATATATATATATATATATATTAATATATATTAC [XGTACX_negctrl_site103] | 9.1 ± 0.32
AAATTAATAAATATTTTTATAAATTATAATATTAAT [GTGCAC_negctrl_site533] | 7.25 ± 0.22
TTTTTTTTTTTTTAATGTACCCATGGGCACATAGGT [XGTACX_site486] | 8.26 ± 0.29
TAAATATAGGGTAATAGTACATAATTATATTCTTTT [XGTACX_site3883] | 7.51 ± 0.56
AATGGATTAGCTAGCACACACAAAAAAAAAAAAAAA [CACACA_site3031] | 8.07 ± 0.61

Sequence | gcPBM binding intensity (ln)
TACATATTTGTATATGCACACATAAATTTTTCCATT [CACACA_site9148] | 8.97 ± 0.15
AAATATTTATACCACACACACATACCTCTATTTGTA [CACACA_site6957] | 8.03 ± 0.56
GTATATATATTTGTACGTACATATTGTTGTAAACAC [XGTACX_site8833] | 8.3 ± 0.16
TTTTTTATTGTGATACGTATATTATTTTATGATTAA [GTGCAC_negctrl_site202] | 7.87 ± 0.69
AAGAGAGACATCAACACACATACGTATGTATAGAAA [CACACA_site1397] | 7.64 ± 0.44
TTCATTTTAATAATATGTACATAATATATTTAAAAA [XGTACX_site634] | 7.785 ± 0.064
CGTATGCGTATATACACACCCACGTATATATATAAA [CACACA_site3200] | 8.02 ± 0.34
ATTTTTAATCATTTACAACCTAGTGATTATACAAAT [CACACA_negctrl_site1089] | 7.77 ± 0.61
ATATAATAATTGTACACATGCACACACAAATATTAT [TGCATGCA_site204] | 8.59 ± 0.34
TATATTTATGTATATGTGCACATAAATTTAAGAATG [GTGCAC_site9512] | 9.68 ± 0.19
ATAGCCAAAAATCATGCACACCTAAAAAAAAAAAAA [CACACA_site8826] | 8.715 ± 0.064
TTTTTTATTAAAAGCGAAAAAAATGAAAACTTTTTT [GTGCAC_negctrl_site605] | 7.52 ± 0.59
GAAGTAGATGGAAAAGTGCACTGTAATGGTTATATT | 10.6 ± 0.035
TTTTTAATTAACTTTGTAAACTTATATATATATATA [TGCATGCA_negctrl_site311] | 9.22 ± 0.45
TTAAAGCACCCATGCACACACACAAGGGAAAAGAAA [CACACA_site4289] | 10.9 ± 0.92
AAGGAATATTAAGTGGGTACTAAAAAAAAATTAATT [XGTACX_site331] | 7.88 ± 0.64
TGTATATAGAAACATACACACATATTAATTTTACAT [CACACA_site3126] | 7.62 ± 0.54
TCCAATTAAATATATGAACACACATGTGAACTTTCT [CACACA_site9318] | 7.54 ± 0.46
TTAAGTCATAAATAAAGTACATAAATATAATATATA [XGTACX_site6304] | 7.67 ± 0.23
ATGTAAATGTTATTATGTACATATTTATTCTTCAAA [XGTACX_site7377] | 7.75 ± 0.47
GGGGGTAGGGGAAGAAGTACAATGATCACTACAGTA [XGTACX_site1169] | 9.54 ± 0.13
GTTAAAATTTGTCAATGTACAGAAATAATAAAAAAA [XGTACX_site1879] | 7.97 ± 0.62
